# In PubChem BioAssay AID602233 (National Center for Advancing Translational Sciences (NCATS), 2012):
# Among all 380,000 compounds or so, about 170 (0.045%) were called active. The inconclusive results got no clear call from the source; some entries with a clear call stand among them for comparison. Calls come from the whole dose curve; as a rule, active = well fitted inhibition curve with a large enough effect; inconclusive = small, poorly fitted or top-dose-only effect; inactive = no such curve, though single readings can be large or run the other way. Potencies of inconclusive entries are left out as doubtful fits.
# Biological target: Phosphoglycerate kinase, glycosomal (Trypanosoma brucei brucei) (UniProt P07378)
# Assay: qHTS Assay to Find Inhibitors of Phosphoglycerate Kinase; note: nearly all actives have a fitted effect of over 60% in size
# Settings: PGK/GAPDH coupled, Kinase-Glo luminescence, 60 min; series mostly up to 57.5 µM
# Method in brief: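 Recombinant glycosomal PGK reaction used 1,3-bisphosphoglycerate generated in-well by GAPDH (100nM final) in 100mM TEA pH 7.6, 5mM MgCl2, 0.01% Tween-20. After 60 minutes at room temperature, ATP was read by Kinase-Glo Plus luminescence end-point.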
# Potency is the fitted concentration of half-maximal effect; tags give direction and shape of the fitted curve.
row,SMILES,Potency
1,CN(C)CCNC(=S)Nc1cccc(Cl)c1,inactive
2,O=C(N/N=C/C=C/c1ccco1)/C(=C/c1ccccc1)NC(=O)c1ccccc1,inactive
3,CCOc1ccc(OCCNC(=O)c2ccc3c(c2)nnn3CC)cc1,inactive
4,COc1ccc(-n2c(NC(=O)c3ccco3)c(C#N)c3nc4ccccc4nc32)cc1,"inconclusive [inhibitor, single point]"
5,CCCNc1ccc(S(=O)(=O)N(C(C)C)C(C)C)cn1,inactive
6,CN(C)c1ccc(N/C=C/C(=O)c2ccc(F)cc2)cc1,"inconclusive [inhibitor, single point]"
7,COc1ccc(N2CCN(C3CCCN(Cc4cccc(OC)c4)C3)CC2)cc1 (configuration not stated),inactive
8,CC(Oc1ccc2c(c1)oc(=O)c1ccccc12)C(=O)NCCN1CCOCC1 (configuration not stated),inactive
9,O=C(N/N=C/c1ccccc1Cl)c1n[nH]c2c1CCCC2,"inconclusive [inhibitor, partial curve]"
10,O=C(Nc1ccc([N+](=O)[O-])cc1)C(=O)Nc1cccc(C(=O)O)c1,"inconclusive [inhibitor, partial curve]"
11,COc1ccccc1CNC(=O)C(CC(C)C)NC(=O)C1CCC(C)CC1 (configuration not stated),inactive
12,Cc1ccc(OCC(=O)N(C)CC(=O)NCc2ccco2)c(Br)c1,"inconclusive [inhibitor, partial curve, poor fit]"
13,Nc1nc(Sc2ccc([N+](=O)[O-])c3nonc23)c2[nH]cnc2n1,"inconclusive [inhibitor, partial curve]"
14,CCc1cccc(C)c1NC(=O)c1cnn(-c2ccc(OC)cc2)c1C1CCN(C(=O)OC(C)(C)C)CC1,inactive
15,Cc1cccc(N(CC(=O)N2CCCCCC2)S(C)(=O)=O)c1,"inconclusive [inhibitor, partial curve, poor fit]"
16,CC(=O)Nc1cccc(NC(=O)CCn2cnc3cc(C)c(C)cc32)c1,inactive
17,COc1ccc(-c2c(-c3ccc(O)cc3O)n[nH]c2C(F)(F)F)cc1,"inconclusive [inhibitor, partial curve, poor fit]"
18,c1cnc2ccc3c(c2c1)COCO3,inactive
19,COc1ccc2c(c1)sc1nc(-c3ccccc3)cn12,"inconclusive [inhibitor, single point]"
20,COC1=C(N)C(=O)c2nc(-c3nc(C(=O)O)c(C)c(-c4ccc(OC)c(OC)c4O)c3N)ccc2C1=O,"inconclusive [inhibitor, single point]"
21,C=C(C)C(=O)Nc1cccc(C2=NOC3(C2)C[C@H](C(N)=O)N(C(=O)CC)C3)c1 (some centres not stated),active: 5.62 µM
22,C=CCn1c(O)c(C=Nc2ccc(CN3CCCCC3)cc2)c(=O)[nH]c1=S,"inconclusive [inhibitor, partial curve, poor fit]"
23,O=C1N=c2ccc([N+](=O)[O-])cc2=C1c1sc(=O)[nH]c1O,inactive

row,SMILES,Potency
1,COc1ccc(C2/C=C\CN(C(=O)c3ccc(C)cc3)[C@H](Cc3ccccc3)C(=O)N2Cc2ccc(F)cc2)cc1 (some centres not stated),inactive
2,Cc1cc(C(=O)OCC(=O)NCc2ccco2)c(C)n1-c1ccccc1,"inconclusive [inhibitor, single point]"
3,CCC(=O)N1CCc2cc(S(=O)(=O)NC(CC(C)C)C(=O)NCCc3cccc(C)c3)ccc21 (configuration not stated),inactive
4,Fc1ccc(C2CC(c3ccco3)n3ncnc3N2)cc1 (configuration not stated),inactive
5,O=C(NC(Nc1nc2ccc([N+](=O)[O-])cc2s1)(C(F)(F)F)C(F)(F)F)c1ccccc1Cl,"inconclusive [inhibitor, single point]"
6,O=C(N/N=C/C(Cl)=C/c1ccc([N+](=O)[O-])cc1)C(=O)Nc1ccc(C(=O)O)cc1,"inconclusive [inhibitor, single point]"
7,Nc1ccc2c(c1Cl)C(=O)c1ccc(N)c(Cl)c1C2=O,"inconclusive [inhibitor, partial curve, poor fit]"
8,Cc1cc(SCC(=O)c2ccc(O)c(O)c2)nc2ccccc12,inactive
9,CC(C)(C)c1ccc(C(=O)N/C(=C\c2cccc([N+](=O)[O-])c2)C(=O)Nc2cccc(C(=O)O)c2)cc1,"inconclusive [inhibitor, single point]"
10,O=C(Nc1cccc(Cl)c1)c1ccc(F)c(S(=O)(=O)NCc2ccc3c(c2)OCO3)c1,"inconclusive [inhibitor, full curve, poor fit]"
11,O=C(CSc1nc2ccsc2c(=O)n1CC1CCC(C(=O)O)CC1)c1ccc(Cl)cc1 (configuration not stated),"inconclusive [inhibitor, single point]"
12,CCN1CCN(c2nc3ccccc3nc2C(C#N)C(=O)OCc2ccccc2)CC1 (configuration not stated),inactive
13,N/C(=N\N=C\c1cccc(O)c1)c1nonc1N,"inconclusive [inhibitor, partial curve, poor fit]"
14,O=C(/C=C/c1cccs1)Nc1scc(-c2ccccc2)c1C(=O)O,"inconclusive [inhibitor, partial curve, poor fit]"
15,O=C(CCN1C(=O)/C(=C/c2ccc(Cl)cc2)SC1=S)Nc1cccc(C(=O)O)c1,"inconclusive [inhibitor, single point]"
16,C/C(=N/NC(=O)c1cc(O)c(O)c(O)c1)c1ccc([N+](=O)[O-])cc1,"inconclusive [inhibitor, partial curve, poor fit]"
17,O=C(NCc1ccco1)c1ccc(Cl)nc1,"inconclusive [inhibitor, single point]"
18,c1c2c(cc3sc(N4CCOCC4)nc13)OCCO2,"inconclusive [inhibitor, single point]"
19,COc1cc(/C=C2\CCn3c2nc2cc(C(=O)O)ccc2c3=O)ccc1OC(F)F,"inconclusive [inhibitor, single point]"
20,CCOC(=O)c1cnc2ccc(OC(F)(F)F)cc2c1Nc1ccccc1C(=O)O,"inconclusive [inhibitor, partial curve, poor fit]"
21,CC(C)(C)c1ccc(OCC(=O)NNC(=O)C2CCCO2)cc1 (configuration not stated),inactive
22,CC(=O)c1cccc(NCc2ccccc2-c2nnc(-c3ccccc3)o2)c1,inactive
23,O=C(O)c1ccc(/C=N/NC(=O)c2ccc(CN3c4cccc5cccc(c45)S3(=O)=O)cc2)cc1,"inconclusive [inhibitor, single point]"

row,SMILES,Potency
1,CC1=C(O)C(=O)C(C2=C(O)C(=O)C(C)=C(O)C2=O)=C(O)C1=O,"inconclusive [inhibitor, partial curve, poor fit]"
2,COc1cccc2c(SCC(=O)N/N=C/c3ccc(O)c(O)c3)cc(C)nc12,"inconclusive [inhibitor, partial curve, poor fit]"
3,Nc1c(C(=O)NCc2ccc(F)cc2)c2nc3ccccc3nc2n1CCCN1CCOCC1,inactive
4,Cc1c(N=Cc2ccc(O)c(Br)c2)cccc1[N+](=O)[O-],inactive
5,O=C(COc1ccccc1)NCC(c1cccs1)S(=O)(=O)c1ccc(Cl)cc1 (configuration not stated),"inconclusive [inhibitor, partial curve, poor fit]"
6,C=C(C)C(=O)Nc1cccc(C2=NOC3(C2)C[C@@H](C(N)=O)N(C(=O)C(=C)C)C3)c1 (some centres not stated),"inconclusive [inhibitor, partial curve, poor fit]"
7,CCCn1c(N)c(N(CCOC)C(=O)COC(=O)c2ccccc2NCCO)c(=O)[nH]c1=O,inactive
8,Cc1c(N2C(=O)c3ccc4c5c(ccc(c35)C2=O)CC4)c(=O)n(-c2ccccc2)n1C,"inconclusive [inhibitor, partial curve, poor fit]"
9,O=C(NNC(=O)c1cc2cc3ccccc3nc2s1)c1ccc(F)cc1,"inconclusive [inhibitor, single point]"
10,CN(CC(=O)Nc1cccc(F)c1)C(=O)c1cc(-c2ccco2)nc2ccccc12,"inconclusive [inhibitor, single point]"
11,Cc1oc(-c2ccc3c(c2)OCCO3)cc1C(=O)O,"inconclusive [inhibitor, partial curve, poor fit]"
12,O=C(Nc1ccc(C(=O)N2CCCCC2)cc1)c1nsc2ccccc12,"inconclusive [inhibitor, partial curve, poor fit]"
13,Cc1ccccc1C(=O)Nc1ccc(N2CCN(C(=O)c3ccco3)CC2)cc1,inactive
14,Cc1cc2ccccn2c1C(=O)c1ccc(N/N=C/c2ccc(C(=O)O)cc2)c([N+](=O)[O-])c1,"inconclusive [inhibitor, single point]"
15,Cc1ccc(S(=O)(=O)N(C)c2ccc(OCC(=O)Nc3cccc(-n4cnnn4)c3C)cc2)cc1,inactive
16,O=C1/C(=C/c2cccs2)CCc2ccccc21,"inconclusive [inhibitor, partial curve, poor fit]"
17,O=C(O)C1CC=CCC1C(=O)Nc1ccccc1 (configuration not stated),"inconclusive [inhibitor, partial curve, poor fit]"
18,Cc1ccc(OCC(=O)c2c(N)n(C)c(=O)n(C)c2=O)c([N+](=O)[O-])n1,"inconclusive [inhibitor, single point]"
19,O=C(NN(C(=O)c1ccccc1)c1ccccc1)c1ccccc1,"inconclusive [inhibitor, partial curve]"
20,CCOC(=O)c1ccc(NC(=O)c2cccc(S(=O)(=O)N3CCN(C(C)=O)CC3)c2)cc1,inactive
21,CC1=CCC(C(=O)O)C(C(=O)NC2CCCCC2)C1 (configuration not stated),"inconclusive [inhibitor, single point]"
